{"source": "the BET-seq Pho4 binding data (Le et al. 2018)", "note": "Some of the results follow. These are noisy estimates, calculated here from bound and input reads."}
{"target": "T1, Pho4 (S. cerevisiae) (UniProt P07270)", "T1 sequence": "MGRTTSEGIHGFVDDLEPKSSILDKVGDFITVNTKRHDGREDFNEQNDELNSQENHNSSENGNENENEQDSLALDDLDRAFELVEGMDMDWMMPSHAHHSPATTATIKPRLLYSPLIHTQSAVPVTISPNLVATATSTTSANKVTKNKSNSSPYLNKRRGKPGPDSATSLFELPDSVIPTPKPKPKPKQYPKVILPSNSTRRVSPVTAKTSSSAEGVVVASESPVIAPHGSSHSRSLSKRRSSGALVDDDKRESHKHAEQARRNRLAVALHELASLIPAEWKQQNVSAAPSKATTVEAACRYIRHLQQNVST", "assay": "relative binding free energy (BET-seq); higher = weaker binding", "conditions": "reference: library average", "units": {"relative binding free energy": "kJ/mol"}}
{"sequence": "GTTGTCACGTGGTATA", "relative binding free energy": 0.293}
{"sequence": "GGTTTCACGTGCTCGG", "relative binding free energy": 1.13}
{"sequence": "ATTTGCACGTGGTGCA", "relative binding free energy": -0.753}
{"sequence": "TTCGTCACGTGGGCGT", "relative binding free energy": -0.335}
{"sequence": "ATTTTCACGTGGCTAT", "relative binding free energy": 0.879}
{"sequence": "TTGGTCACGTGTGGTT", "relative binding free energy": 0.795}
{"sequence": "ATTGGCACGTGGCAAT", "relative binding free energy": -1}
{"sequence": "TGTTACACGTGAGGTT", "relative binding free energy": 1.09}
{"sequence": "AAGGCCACGTGGTATG", "relative binding free energy": 0}
{"sequence": "AGTGGCACGTGTTTTA", "relative binding free energy": -0.46}
{"sequence": "CATGGCACGTGGTGAG", "relative binding free energy": -0.795}
{"sequence": "ACTGGCACGTGTAAGG", "relative binding free energy": 1}
{"sequence": "GAGAGCACGTGGTGTT", "relative binding free energy": -0.837}
{"sequence": "TGCGTCACGTGGATGG", "relative binding free energy": 0.251}
{"sequence": "AGTTGCACGTGGTAGG", "relative binding free energy": -0.0418}
{"sequence": "GGGTACACGTGGTTAG", "relative binding free energy": 0.502}
{"sequence": "TTTGGCACGTGTGTCG", "relative binding free energy": -0.46}
{"sequence": "CACCGCACGTGGGGGG", "relative binding free energy": -1}
{"sequence": "TCTGACACGTGTTTTT", "relative binding free energy": 0.377}
{"sequence": "TATGTCACGTGGCGTC", "relative binding free energy": 0.0418}
{"sequence": "GTCGTCACGTGAGTTT", "relative binding free energy": 0.711}
{"sequence": "AGTGTCACGTGAGTTC", "relative binding free energy": 1.13}
{"sequence": "TTTTCCACGTGGTAGA", "relative binding free energy": 0.335}
{"sequence": "CGGGTCACGTGCTGCG", "relative binding free energy": -0.0837}
{"sequence": "TGTGTCACGTGGTCGG", "relative binding free energy": 0.126}
{"sequence": "GTTGGCACGTGTAGTA", "relative binding free energy": 0.167}
{"sequence": "GACTGCACGTGTGAGT", "relative binding free energy": 0.711}
{"sequence": "CTCGTCACGTGGGATG", "relative binding free energy": -0.0418}
{"sequence": "TGTTACACGTGATATT", "relative binding free energy": 1.3}
{"sequence": "GGGCGCACGTGTACGT", "relative binding free energy": 0.167}
{"sequence": "CAGGACACGTGGGTTT", "relative binding free energy": -0.251}
{"sequence": "TGTACCACGTGGTGAT", "relative binding free energy": -0.586}
{"sequence": "TCTTACACGTGGAGGT", "relative binding free energy": 0.669}
{"sequence": "CGAGTCACGTGTGTAT", "relative binding free energy": 0.753}
{"sequence": "TGTGTCACGTGTAGTA", "relative binding free energy": 0.544}
{"sequence": "CGTTCCACGTGGGTTG", "relative binding free energy": -0.669}
{"sequence": "TGTAGCACGTGCGTTG", "relative binding free energy": -0.711}
{"sequence": "TGTTGCACGTGACAGG", "relative binding free energy": 0.0418}
{"sequence": "GACAGCACGTGGGTTG", "relative binding free energy": -0.167}
{"sequence": "GGTGCCACGTGGCGGT", "relative binding free energy": 0}
{"sequence": "TTATACACGTGGAATT", "relative binding free energy": 0.293}
{"sequence": "GTGGTCACGTGTACAT", "relative binding free energy": 0.669}
{"sequence": "CGGGACACGTGCTTGG", "relative binding free energy": -0.335}
{"sequence": "TGCAGCACGTGGCTTT", "relative binding free energy": -0.544}
{"sequence": "GCGTTCACGTGTCTGT", "relative binding free energy": 1.92}
{"sequence": "GACGTCACGTGGATTT", "relative binding free energy": 1.17}
{"sequence": "ATGTACACGTGGTGTT", "relative binding free energy": -0.377}
{"sequence": "TGGGGCACGTGCGTTC", "relative binding free energy": -1.09}
{"sequence": "GGTGTCACGTGGTAGC", "relative binding free energy": 0.879}
{"sequence": "GGGTTCACGTGTTTCT", "relative binding free energy": 1.92}
{"sequence": "GGGGCCACGTGGATGA", "relative binding free energy": -0.377}
{"sequence": "TCGGTCACGTGGGCTG", "relative binding free energy": 0.335}
{"sequence": "TAGAACACGTGTTAAT", "relative binding free energy": 0.753}
{"sequence": "TACGTCACGTGGTTTG", "relative binding free energy": -0.0418}
{"sequence": "CGGTTCACGTGTGTAC", "relative binding free energy": 1.3}
{"sequence": "TGTAGCACGTGCAGGT", "relative binding free energy": -0.92}
{"sequence": "GTGGTCACGTGATGCG", "relative binding free energy": 1.3}
{"sequence": "CAAGTCACGTGATGGT", "relative binding free energy": 1.55}
{"sequence": "TAGATCACGTGGAATT", "relative binding free energy": 0.92}
{"sequence": "TTTTTCACGTGCCTTC", "relative binding free energy": 1.38}
{"sequence": "GGGTGCACGTGGTCTT", "relative binding free energy": 0.0418}
{"sequence": "TTAGGCACGTGTTGGA", "relative binding free energy": -0.753}
{"sequence": "TTAATCACGTGGCATG", "relative binding free energy": 0.879}
{"sequence": "GGTGGCACGTGCGTTG", "relative binding free energy": -0.335}
{"sequence": "GTGCTCACGTGGTGTA", "relative binding free energy": 0.753}
{"sequence": "ATGGTCACGTGGAATC", "relative binding free energy": 1.59}
{"sequence": "TATGGCACGTGATTCG", "relative binding free energy": 0.209}
{"sequence": "GTTTTCACGTGGCTTT", "relative binding free energy": 1.63}
{"sequence": "GTTATCACGTGGGTAC", "relative binding free energy": -0.251}
{"sequence": "ACTGACACGTGGGGTT", "relative binding free energy": -0.502}
{"sequence": "AGTGTCACGTGAGTAA", "relative binding free energy": 1.13}
{"sequence": "CATGGCACGTGGATGT", "relative binding free energy": -0.0418}
{"sequence": "GGGTCCACGTGGTTCG", "relative binding free energy": 0}
{"sequence": "CGTAGCACGTGGTTTA", "relative binding free energy": -0.92}
{"sequence": "GTTTACACGTGTGGGT", "relative binding free energy": 1}
{"sequence": "AACTTCACGTGGGGGT", "relative binding free energy": 0.167}
{"sequence": "CAGGTCACGTGTGTAA", "relative binding free energy": 0.418}
{"sequence": "GAGATCACGTGGTGTT", "relative binding free energy": 0.711}
{"sequence": "TGAGTCACGTGTTCTT", "relative binding free energy": 0.837}
{"sequence": "GTTTGCACGTGGCTAG", "relative binding free energy": 0}
{"sequence": "CAGGGCACGTGTATTT", "relative binding free energy": -0.167}
{"sequence": "TCGTTCACGTGTCGTT", "relative binding free energy": 1}
{"sequence": "GATATCACGTGGGTGT", "relative binding free energy": 0.669}
{"sequence": "GGTTGCACGTGCTCGA", "relative binding free energy": 0.586}
{"sequence": "CTGTTCACGTGGTTCT", "relative binding free energy": 0.962}
{"sequence": "CGTTTCACGTGTATTA", "relative binding free energy": 0.879}
{"sequence": "TAAGCCACGTGGTAGT", "relative binding free energy": -0.628}
{"sequence": "GGAGACACGTGGGTAT", "relative binding free energy": -0.335}
{"sequence": "TGCGGCACGTGTTGGT", "relative binding free energy": 0}
{"sequence": "GGTGCCACGTGGGGAC", "relative binding free energy": -1.3}
{"sequence": "CTAATCACGTGTGAGT", "relative binding free energy": 1.26}
{"sequence": "TTTTTCACGTGCGGCT", "relative binding free energy": 1.17}
{"sequence": "GGCCGCACGTGGTAGT", "relative binding free energy": -0.628}
{"sequence": "AACTGCACGTGTGTTT", "relative binding free energy": 0.711}
{"sequence": "TGAGTCACGTGTATCA", "relative binding free energy": 0.46}
{"sequence": "AATTGCACGTGGGAGA", "relative binding free energy": -0.377}
{"sequence": "TGCGTCACGTGGACTG", "relative binding free energy": 0.251}
{"sequence": "TATTACACGTGTTTCG", "relative binding free energy": 0.0837}
{"sequence": "TGGTCCACGTGGTGCT", "relative binding free energy": 0}
{"sequence": "TAAGTCACGTGATTCG", "relative binding free energy": 0.544}
{"sequence": "AGGTCCACGTGGTGAT", "relative binding free energy": 0.377}
{"sequence": "GTGGACACGTGTGATG", "relative binding free energy": 0.46}
{"sequence": "TCCGGCACGTGTGAGG", "relative binding free energy": 0}
{"sequence": "TTTAGCACGTGTCTAT", "relative binding free energy": -0.46}
{"sequence": "GGTGGCACGTGGGGTG", "relative binding free energy": -0.586}
{"sequence": "TGTTACACGTGGTGGG", "relative binding free energy": 0.502}
{"sequence": "GTATTCACGTGATAAT", "relative binding free energy": 1.34}
{"sequence": "GGAGGCACGTGTGATA", "relative binding free energy": -0.377}
{"sequence": "AGGTACACGTGAAAGG", "relative binding free energy": 0.879}
{"sequence": "GTGATCACGTGGGCGG", "relative binding free energy": -0.0837}
{"sequence": "CGGGGCACGTGTATGA", "relative binding free energy": -0.92}
{"sequence": "GGTCTCACGTGATGTG", "relative binding free energy": 1.09}
{"sequence": "TTGTTCACGTGATAAT", "relative binding free energy": 1.38}
{"sequence": "GTGGTCACGTGAGATC", "relative binding free energy": 1.51}
{"sequence": "AAAGGCACGTGCGAGG", "relative binding free energy": -0.586}
{"sequence": "TTGATCACGTGCAGGT", "relative binding free energy": 0.544}
{"sequence": "GTTAACACGTGTAGGA", "relative binding free energy": 0}
{"sequence": "CATTGCACGTGTAGTG", "relative binding free energy": 0.209}
{"sequence": "CGGGTCACGTGTTTAT", "relative binding free energy": 0.837}
{"sequence": "GTAACCACGTGGTGGT", "relative binding free energy": -0.167}
{"sequence": "TAAGGCACGTGATGTA", "relative binding free energy": -0.335}
{"sequence": "TAAAACACGTGGTGCG", "relative binding free energy": 0.0418}
{"sequence": "GTAGTCACGTGTGGGT", "relative binding free energy": 0.962}
{"sequence": "TCAGTCACGTGGGTGA", "relative binding free energy": -1.21}
{"sequence": "TTGGTCACGTGAAGGC", "relative binding free energy": 1.34}
{"sequence": "TTTTGCACGTGGTATT", "relative binding free energy": -0.46}
{"sequence": "ATGCACACGTGTGTAG", "relative binding free energy": 0.837}
{"sequence": "GCGGGCACGTGTGCAG", "relative binding free energy": -0.377}
{"sequence": "TATGTCACGTGTTGAG", "relative binding free energy": 0}
{"sequence": "TTCTGCACGTGTGTTG", "relative binding free energy": 0.377}
{"sequence": "CTGTGCACGTGGCGAG", "relative binding free energy": -0.335}
{"sequence": "AAAGACACGTGGGGAT", "relative binding free energy": -0.126}
{"sequence": "GTGCGCACGTGTTTAG", "relative binding free energy": -0.167}
{"sequence": "GGGTGCACGTGGGTCC", "relative binding free energy": -0.502}
{"sequence": "CTTTACACGTGTTAGG", "relative binding free energy": 0.795}
{"sequence": "TAGTACACGTGCTTGA", "relative binding free energy": 0.628}
{"sequence": "AGACTCACGTGGTAGT", "relative binding free energy": 1.17}
{"sequence": "GGGGCCACGTGAGAGG", "relative binding free energy": 0.502}
{"sequence": "GTTTGCACGTGGGCGC", "relative binding free energy": -0.377}
{"sequence": "AGGGGCACGTGCATAT", "relative binding free energy": -0.753}
{"sequence": "TGATACACGTGTGCGT", "relative binding free energy": 0.335}
{"sequence": "AGTTGCACGTGTGTCT", "relative binding free energy": 0.209}
{"sequence": "ATGGTCACGTGGTGGG", "relative binding free energy": 0.418}
{"sequence": "AATGGCACGTGAGGTA", "relative binding free energy": 0.502}
{"sequence": "GGATGCACGTGGTCAT", "relative binding free energy": -0.502}
{"sequence": "TATGGCACGTGGCCTG", "relative binding free energy": -0.92}
